Our source for the binding signal (normalized occupancy) values is publication PMC4242493.

The other results are listed elsewhere or left out. The list includes weakly bound sequences.

The target in this assay is MaxL homodimer (UniProt P61244). Nature of the assay: universal protein-binding microarray (PBM). As to conditions: PBS-based mixture, 10 nM His-tagged protein dimer, 2% milk, 200 ng/uL BSA, 50 ng/uL salmon testes DNA, 0.02% TX-100; detection with Alexa 488 anti-His …; high values mean tight binding; most listed sequences are background and not binding sites; double strand, one strand shown.
UniProt P61244, sequence (P61244 whole entry): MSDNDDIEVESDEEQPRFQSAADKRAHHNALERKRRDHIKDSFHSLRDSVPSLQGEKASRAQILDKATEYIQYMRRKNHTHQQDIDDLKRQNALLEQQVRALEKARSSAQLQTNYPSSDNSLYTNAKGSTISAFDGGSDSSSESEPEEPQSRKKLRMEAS
For TCCCGGCA, the binding signal (normalized occupancy) was found to be 0.0675. For the sequence AACAACTT, the binding signal (normalized occupancy) came to 0.0698.

In the case of ACGAACCC, the binding signal (normalized occupancy) amounted to 0.072. Turning to CAACTACG, the binding signal (normalized occupancy) turned out to be 0.0717. Consider TCAGCCCA, for which the binding signal (normalized occupancy) was 0.0771. The value for CGGATCTA was 0.0784. Regarding ACTAAGCA, the binding signal (normalized occupancy) amounted to 0.0845.

For AAGTTGAA, the binding signal (normalized occupancy) is 0.0743. In the case of AACGCGTA, the binding signal (normalized occupancy) is 0.0792. The value for CATCATAC was 0.0827; that for CGCACGAC was 0.0787; that for TACTTAGA was 0.0735. For the sequence GTAGAAAA, the binding signal (normalized occupancy) stood at 0.0747. Regarding GAGTATGA, the binding signal (normalized occupancy) is 0.0832. For GTGACATA, the binding signal (normalized occupancy) is 0.0816.

As to TCGCTAAA, the binding signal (normalized occupancy) is 0.0733.

Take CGGGGTTA: the binding signal (normalized occupancy) was 0.0781. AGGATGGG: the binding signal (normalized occupancy) was determined as 0.077. Regarding GAAGAACC, the binding signal (normalized occupancy) was 0.0735. For the sequence ATGAAGTC, the binding signal (normalized occupancy) is 0.0771.

CTTGGCAA: the binding signal (normalized occupancy) came to 0.0746. Turning to AACGTATG, the binding signal (normalized occupancy) is 0.0809.

As to ACATAGGA, the binding signal (normalized occupancy) was determined as 0.0874. The value for GGGGCCCC was 0.0672; that for ATTCAAGA was 0.0708. Take ATTGCGCG: the binding signal (normalized occupancy) stood at 0.0747. Take GACTCCTC: the binding signal (normalized occupancy) turned out to be 0.0692. For the sequence AGAACCCT, the binding signal (normalized occupancy) came to 0.0728. On to CCACTAGC, for which the binding signal (normalized occupancy) amounted to 0.0779.

As for ATAGCACA, the binding signal (normalized occupancy) amounted to 0.0775. Regarding CACTACCG, the binding signal (normalized occupancy) came out at 0.0753.

Regarding TACAAGCA, the binding signal (normalized occupancy) is 0.0772. For ATTTTGAC, the binding signal (normalized occupancy) is 0.0815.

CAGCCCCA: the binding signal (normalized occupancy) stood at 0.0738. Next, GCTTCGCC: 0.0612. Take CGAGTGAC: the binding signal (normalized occupancy) worked out at 0.0731. Turning to ATGGCTAG, the binding signal (normalized occupancy) was 0.0798. The value for CTTATAAG was 0.0712; that for CGGGTCAA was 0.0729; that for AGATGTCC was 0.0794. Take CGACGCAC: the binding signal (normalized occupancy) was 0.0773. On to GTGACGCA, for which the binding signal (normalized occupancy) came out at 0.0772. For the sequence ACCGGACT, the binding signal (normalized occupancy) is 0.0692. For TAAAGAGA, the binding signal (normalized occupancy) amounted to 0.0738. On to GGACTAAA, for which the binding signal (normalized occupancy) stood at 0.0695. Take CATACGGC: the binding signal (normalized occupancy) is 0.0791. Next, GTAATTCA: 0.0752; GTCCACAA: 0.0768; CGTAGCTA: 0.0725. For the sequence ACTCCTCC, the binding signal (normalized occupancy) was 0.0748. Next, CAAATTAA: 0.0753; TCTCTGAA: 0.0683. Next, AACCTCAT: 0.0862; ACTAGCCC: 0.0747. With ATGCGCTG, the binding signal (normalized occupancy) turned out to be 0.0738. As to CCCCGGTC, the binding signal (normalized occupancy) came to 0.0711.

Regarding ACACGAGA, the binding signal (normalized occupancy) turned out to be 0.0977. Take CCAGTGGG: the binding signal (normalized occupancy) was found to be 0.0697. CCTCTCAG: the binding signal (normalized occupancy) amounted to 0.0693. Turning to CGCTAGTA, the binding signal (normalized occupancy) came out at 0.0705. In the case of CTCAGAAC, the binding signal (normalized occupancy) worked out at 0.0759.

As for CCCCCAGA, the binding signal (normalized occupancy) is 0.0717.

As to ATTTCCAC, the binding signal (normalized occupancy) amounted to 0.0826. Regarding GGAGGGGA, the binding signal (normalized occupancy) is 0.0711.

Consider ACTTTTAA, for which the binding signal (normalized occupancy) was 0.0712. For the sequence TCTCCAGA, the binding signal (normalized occupancy) was found to be 0.0693.

As to CAATATGA, the binding signal (normalized occupancy) is 0.0822.

With ACCCACCC, the binding signal (normalized occupancy) is 0.0857. Consider ATTTTCTC, for which the binding signal (normalized occupancy) was 0.0747.

CCCATTAC: the binding signal (normalized occupancy) stood at 0.0777. As to CATATATA, the binding signal (normalized occupancy) stood at 0.0904.

Turning to ATATGCGG, the binding signal (normalized occupancy) turned out to be 0.085. Regarding GACCCCTA, the binding signal (normalized occupancy) is 0.0761. Next, GCATTATA: 0.0841; ATGTTCCG: 0.0732. As for ATCACAAG, the binding signal (normalized occupancy) was 0.0826.

Consider AATGAGAA, for which the binding signal (normalized occupancy) is 0.072. Next, AGCTCCGG: 0.071; ACCATGCA: 0.0972.

For the sequence AGACCCGG, the binding signal (normalized occupancy) was 0.0703. TACTGACA: the binding signal (normalized occupancy) amounted to 0.0743. Consider TCATCGGA, for which the binding signal (normalized occupancy) was determined as 0.0748. AGAGTAAT: the binding signal (normalized occupancy) stood at 0.072.

For ACCCTACA, the binding signal (normalized occupancy) amounted to 0.0836. Consider GGGCCCTA, for which the binding signal (normalized occupancy) was 0.0705. As for ACGGTTCC, the binding signal (normalized occupancy) was determined as 0.0706.

As to ACTTGAGA, the binding signal (normalized occupancy) was found to be 0.075. In the case of ACGTCCCT, the binding signal (normalized occupancy) is 0.0811. Turning to AAATCCGT, the binding signal (normalized occupancy) was 0.0746. Take CATCATCA: the binding signal (normalized occupancy) turned out to be 0.0814. On to ATAGCCAC, for which the binding signal (normalized occupancy) turned out to be 0.0774. For the sequence CCTTAAAC, the binding signal (normalized occupancy) came out at 0.071.

For the sequence CTGCGCGC, the binding signal (normalized occupancy) stood at 0.0677. The value for GCGGATAA was 0.0755; that for CCCGGACG was 0.0693; that for CGAAGGTA was 0.0721.

As for AGGTGTAT, the binding signal (normalized occupancy) is 0.0924.

Turning to AGCCCTCC, the binding signal (normalized occupancy) came to 0.0723. Next, AGTTCGAG: 0.0741; GGCAAAGA: 0.069.

In the case of GAGCTCCC, the binding signal (normalized occupancy) was determined as 0.0719. Take GGTTAAAA: the binding signal (normalized occupancy) turned out to be 0.074. Regarding ATAGATGA, the binding signal (normalized occupancy) is 0.0839. Take CCGCGCAC: the binding signal (normalized occupancy) worked out at 0.0818.

As to AGATCCAT, the binding signal (normalized occupancy) is 0.0807. CGGGTACG: the binding signal (normalized occupancy) came to 0.0725. Take CCCACTTA: the binding signal (normalized occupancy) is 0.0731.

Turning to AGGGTAGA, the binding signal (normalized occupancy) worked out at 0.0739. As for GTATGCAC, the binding signal (normalized occupancy) is 0.0856. The value for AGACACTG was 0.0732; that for CAGCCTTC was 0.0653; that for CCCCATGC was 0.107.

For the sequence GTAGTCAC, the binding signal (normalized occupancy) was 0.0739. With GACTTCGA, the binding signal (normalized occupancy) turned out to be 0.0753. Consider ACGTCTGC, for which the binding signal (normalized occupancy) stood at 0.0758. For AAAGTGAT, the binding signal (normalized occupancy) was found to be 0.075.

Regarding ATCTATGG, the binding signal (normalized occupancy) came out at 0.0809. As to CTAATGTA, the binding signal (normalized occupancy) turned out to be 0.078. Next, CAACGAGA: 0.0767. With ACACGCAC, the binding signal (normalized occupancy) came to 0.0931. Next, GGCGCACA: 0.0793. As to AGTGGTAC, the binding signal (normalized occupancy) amounted to 0.0769. CCGCCCGA: the binding signal (normalized occupancy) was 0.0697.

Consider GCGACGAC, for which the binding signal (normalized occupancy) stood at 0.0733. As for CGCAGTCC, the binding signal (normalized occupancy) is 0.0666. AGATAAAA: the binding signal (normalized occupancy) came out at 0.0769.

In the case of AGTCCGTA, the binding signal (normalized occupancy) was 0.0727.

In the case of AGATTAGC, the binding signal (normalized occupancy) is 0.0753. GCATCGCC: the binding signal (normalized occupancy) amounted to 0.0665. Next, GTGTCGCA: 0.078; GACCCCAC: 0.0809; ATACCGCC: 0.0743.

Take CTCTTGCC: the binding signal (normalized occupancy) came to 0.0699.

AGGCGCAC: the binding signal (normalized occupancy) amounted to 0.082. ACCACGGC: the binding signal (normalized occupancy) stood at 0.0743. Turning to CATCAATA, the binding signal (normalized occupancy) came out at 0.0852. Take CTCCGAGC: the binding signal (normalized occupancy) was determined as 0.0709. In the case of ATCTATTC, the binding signal (normalized occupancy) is 0.0842. For the sequence AGTCTGGC, the binding signal (normalized occupancy) came to 0.0663. On to ACACATGA, for which the binding signal (normalized occupancy) was found to be 0.107. As to GTCTAGGA, the binding signal (normalized occupancy) was 0.0723. For AGTAGGGC, the binding signal (normalized occupancy) worked out at 0.0686.

As to AGAGTGCC, the binding signal (normalized occupancy) came out at 0.0774. CACCCTGG: the binding signal (normalized occupancy) turned out to be 0.0757. Take CACACTCA: the binding signal (normalized occupancy) worked out at 0.0754. As to GCACTGGA, the binding signal (normalized occupancy) came out at 0.066. Next, ATAGGACA: 0.0791. Regarding ACTGGGGC, the binding signal (normalized occupancy) turned out to be 0.0709. Consider ATATAAAT, for which the binding signal (normalized occupancy) is 0.0765. The value for TACACCTA was 0.0789. As to CGCGCCTC, the binding signal (normalized occupancy) stood at 0.0733.

Take CCGCGTGC: the binding signal (normalized occupancy) was found to be 0.145. As to CCCAGTCG, the binding signal (normalized occupancy) was 0.0698. The value for AGATAGGC was 0.078; that for ATTAAATA was 0.0778; that for CGTACTGA was 0.0729. As to CCGTCAAA, the binding signal (normalized occupancy) was determined as 0.0691.

CGATGCAG: the binding signal (normalized occupancy) was 0.0742.

Regarding ATGTTCGC, the binding signal (normalized occupancy) amounted to 0.077. Consider ACAGTTAC, for which the binding signal (normalized occupancy) stood at 0.0737.

In the case of CCCGTCAG, the binding signal (normalized occupancy) was found to be 0.0731. The value for GGCGGCCC was 0.0729; that for ACGTCGCT was 0.0755.

With ATTCATGC, the binding signal (normalized occupancy) is 0.0905.

For CTACGGGA, the binding signal (normalized occupancy) is 0.0733. As for CCGGCCGG, the binding signal (normalized occupancy) was 0.0626. Next, CAGCCGAG: 0.0665; AACCCTAA: 0.0715; CTCTCATA: 0.0864.

Take GGTCGACC: the binding signal (normalized occupancy) amounted to 0.0724. Next, CCACTTAG: 0.0706; ACGCATTA: 0.0813.
